The whole screen tested about 310,000 compounds, of which about 2,200 (0.71%) showed an effect of 50% or more. The effect is printed as a negative number. The list shows a part of the results.
target: human ether-à-go-go-related gene (hERG) potassium channel (human, UniProt Q12809); experiment: primary screen, population patch clamp on CHO cells stably expressing hERG
Sequence (Q12809 whole entry, looked up): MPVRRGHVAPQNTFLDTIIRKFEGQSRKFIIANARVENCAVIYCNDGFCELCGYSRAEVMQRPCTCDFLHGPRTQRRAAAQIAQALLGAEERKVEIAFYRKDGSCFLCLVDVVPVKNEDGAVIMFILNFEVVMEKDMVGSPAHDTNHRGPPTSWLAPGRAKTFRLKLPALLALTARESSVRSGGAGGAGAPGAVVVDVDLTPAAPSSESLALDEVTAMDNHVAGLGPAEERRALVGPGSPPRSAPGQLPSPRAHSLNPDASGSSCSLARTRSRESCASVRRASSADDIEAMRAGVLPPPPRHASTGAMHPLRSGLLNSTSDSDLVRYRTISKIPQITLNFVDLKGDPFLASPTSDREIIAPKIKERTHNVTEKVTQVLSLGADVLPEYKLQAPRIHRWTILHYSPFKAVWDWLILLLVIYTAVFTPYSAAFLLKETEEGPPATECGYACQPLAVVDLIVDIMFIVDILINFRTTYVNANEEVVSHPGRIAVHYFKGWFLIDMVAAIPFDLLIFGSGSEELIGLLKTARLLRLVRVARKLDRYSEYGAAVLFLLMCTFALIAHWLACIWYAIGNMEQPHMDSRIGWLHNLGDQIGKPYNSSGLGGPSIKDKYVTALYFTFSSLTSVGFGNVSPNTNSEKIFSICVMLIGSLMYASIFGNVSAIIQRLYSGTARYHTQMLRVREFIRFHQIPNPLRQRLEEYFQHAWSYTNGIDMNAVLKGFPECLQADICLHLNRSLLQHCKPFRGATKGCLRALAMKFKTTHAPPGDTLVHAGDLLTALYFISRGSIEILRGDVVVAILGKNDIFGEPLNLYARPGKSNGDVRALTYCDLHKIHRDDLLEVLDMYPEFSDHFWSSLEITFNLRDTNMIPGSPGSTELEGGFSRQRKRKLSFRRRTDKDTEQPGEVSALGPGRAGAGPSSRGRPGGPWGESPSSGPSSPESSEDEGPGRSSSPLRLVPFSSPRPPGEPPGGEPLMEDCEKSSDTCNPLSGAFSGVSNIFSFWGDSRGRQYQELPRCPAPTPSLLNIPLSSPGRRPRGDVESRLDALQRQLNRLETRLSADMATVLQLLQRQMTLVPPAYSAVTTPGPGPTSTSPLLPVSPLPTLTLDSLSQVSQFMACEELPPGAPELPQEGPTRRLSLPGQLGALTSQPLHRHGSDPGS

| SMILES | hERG current change (%, negative = inhibition) at 1uM [%] |
| --- | --- |
| COc1ccc2[nH]cc(C(=O)CNc3nc(C)cs3)c2c1.I | -0.75 |
| N#Cc1c(C(F)(F)F)cc(-c2cccs2)nc1SCC(=O)O | 3.81 |
| CC(=O)OC(C)(C)C1Cc2cc3ccc(=O)oc3cc2O1 (stereo not shown) | 10.3 |
| CCOC(=O)c1[nH]c2ccc(OC)cc2c1C(SCC(=O)O)c1ccc(C(F)(F)F)cc1 (stereo not shown) | 9.75 |
| O=C(CSc1nnc(CNC(=O)c2cccs2)o1)NCC1CCCO1 (stereo not shown) | 13.2 |
| COc1cc([C@@H]2C[C@H]3CN(c4ccccc4)C(=O)[C@]34CCCN24)cc(OC)c1OC | -1.09 |
| Br.CCCC(=O)Nc1ccc(-c2csc(N/N=C\c3ccncc3)n2)cc1 | 16.9 |
| CCC(C)(C(=O)NC1CCCCC1)N(CC1CCCO1)C(=O)Cc1cccs1 (stereo not shown) | 11.2 |
| CCOc1ccc2nc(NC(=O)CSc3nc4cccnc4n3C)sc2c1 | 12.6 |
| CN(C)c1ccc(C=NC(CO)C(O)c2ccc([N+](=O)[O-])cc2)cc1 (stereo not shown) | 6.82 |
| N/C(CC(=O)Nc1ccc(F)cc1F)=N\OC(=O)c1cccs1 | 9.63 |
| CN(C)c1ccc(N=Cc2cccn2C)cc1 | 18.1 |
| Cc1ccc(S(=O)(=O)N(C)c2ccc(C(=O)N3CCN(Cc4ccc5c(c4)OCO5)CC3)cc2)cc1 | -0.88 |
| O=C(Nc1ccccc1)C1=C(N2CCOCC2)/C(=C/c2cccnc2)CC1 | -7.8 |
| O=C(O)c1ccccc1C(=O)NCC(O)COCC1CC=CCC1 (stereo not shown) | -12.5 |
| O=C1Cc2cc(S(=O)(=O)Nc3ccc(F)cc3Cl)ccc2N1 | -2.76 |
| COc1ccc(C(=O)Nc2ccc3oc(-c4cccc(Cl)c4)cc(=O)c3c2O)cc1 | 6.78 |
| COc1cc(OC)cc(-c2c(-c3ccc(F)cc3)c3cc(-c4ccc5cc[nH]c5c4)ccc3n2C)c1 | 8.92 |
| CC(=O)Nc1ccc(NC(=O)c2oc3cc(C)c(C)cc3c2C)cc1 | 8.62 |
| S=c1nc2ccccc2c2nc(-c3ccccc3Br)[nH]n12 | 13.4 |
| Cc1cc(N2CCN(C3CCCCC3)CC2)nc2cccc(O)c12 | -11.9 |
| CC1(C)CC(CC(=O)Nc2ccccc2[N+](=O)[O-])C(=O)O1 (stereo not shown) | 12.1 |

| SMILES | hERG current change (%, negative = inhibition) at 1uM [%] |
| --- | --- |
| COCc1c(Br)c(C)nc2sc3c(=O)[nH]nnc3c12 | 12.8 |
| Cc1ccc(S(=O)(=O)N2CC=C(C(=O)NC3CCCC3)CC2)cc1 | 11.7 |
| COC(=O)[C@@]1(Cc2ccc(F)cc2)[C@H]2c3cc(C(=O)N(C)C)n(C[C@H](O)CO)c3C[C@H]2CN1C(=O)c1ccccc1 | 19.6 |
| COc1ccccc1N1C(=O)C2C(C(=O)c3ccccc3)=NN(c3ccc(Br)cc3)C2C1=O (stereo not shown) | 7.18 |
| Cc1cc(C)cc(NC(=O)Oc2ccccc2N2CCCCC2)c1 | 11.9 |
| CCc1nc2sc3ccccc3c(=O)c2c(=O)n1CCOC | 4.79 |
| COc1ccccc1CNC(=O)c1ccc2c(c1)OCO2 | -5.52 |
| Cc1ccc(-n2cc(C(=O)c3ccccc3O)cn2)cc1 | 13.4 |
| Cn1ccc(NC(=O)c2ccc([N+](=O)[O-])cc2)n1 | 11.4 |
| CCCCN(CC)C(=O)Cn1ncc2c1-c1cc(C)ccc1OC2 | 8.35 |
| CCS(=O)(=O)N1CCC(C(=O)NCCN2CCN(Cc3ccccc3)CC2)CC1 | 9.23 |
| COc1cc(C(=O)NNC(=S)NC(=O)c2ccc3c(c2)OCO3)cc(OC)c1OC | 3.52 |
| Cc1cc(C)c(Nc2ncccc2C(=O)O)c(C)c1 | 11.9 |
| Cc1ccc(C(=O)NCCc2ccc(S(N)(=O)=O)cc2)cc1[N+](=O)[O-] | 7.24 |
| CC(=C\c1ccco1)/C=C1/SC(=S)N(CC(=O)O)C1=O | 8.87 |
| Cc1ccc(NC(=O)CSc2ccc3nnc(CCNC(=O)c4ccccc4)n3n2)c(C)c1 | -5.53 |
| CC1OC(OC2C(Oc3c(-c4ccc(O)cc4)oc4cc(O)cc(O)c4c3=O)OC(COC3O[C@@H](C)[C@H](O)[C@@H](O)C3O)C(O)C2O)C(O)C(O)C1O (stereo partly shown) | 11.5 |
| Cc1nn2c(-c3ccccc3)c(-c3ccccc3)nc2[nH]c1=O | 12.6 |
| CCOc1ccc(C(=O)Nc2ccc3nc(N4CCN(CC)CC4)cc(C)c3c2)cc1 | -10.2 |
| OCC1(Cc2ccc(Cl)cc2)CCN(Cc2ccc3nsnc3c2)CC1 | -6.01 |
| CC1CCCC(C)N1C(=O)COC(=O)C(Cc1ccccc1)NC(=O)c1cccs1 (stereo not shown) | 11.4 |
